The values that follow come from the BET-seq Pho4 binding data (Le et al. 2018).

The list shows a part of the results. The energies were worked out here from pooled read counts, against the library average; single values are noisy.

The target of this experiment is T1, Pho4 (S. cerevisiae) (UniProt P07270).
T1 sequence: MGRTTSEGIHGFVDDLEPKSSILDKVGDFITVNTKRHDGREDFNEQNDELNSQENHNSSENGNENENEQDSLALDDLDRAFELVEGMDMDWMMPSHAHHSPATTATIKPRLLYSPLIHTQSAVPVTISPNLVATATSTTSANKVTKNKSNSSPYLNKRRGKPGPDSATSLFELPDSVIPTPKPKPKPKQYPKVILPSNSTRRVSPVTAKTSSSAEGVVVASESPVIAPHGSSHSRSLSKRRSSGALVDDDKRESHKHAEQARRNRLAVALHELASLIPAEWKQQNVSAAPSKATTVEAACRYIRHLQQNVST
Description: relative binding free energy (BET-seq); higher = weaker binding. To be noted: reference: library average.
On to GTGTGCACGTGGTACG, for which the “relative binding free energy” value was -0.628 kJ/mol. Under GATGGCACGTGTGATT stands -0.167 kJ/mol. Under ACGTACACGTGGTGGT stands 0.126 kJ/mol; under TATTTCACGTGTAAGA, 1.05 kJ/mol; under TTGATCACGTGTCTAG, 0.586 kJ/mol. Under TTTACCACGTGGTATG stands -0.669 kJ/mol; under GTAACCACGTGATTGG, 0.753 kJ/mol; under TAAGTCACGTGGTTCA, -0.126 kJ/mol.

In the case of TGGAGCACGTGCGGGA, the “relative binding free energy” value was -0.335 kJ/mol. Under ATGTGCACGTGTGCTC stands 0.126 kJ/mol; under CATTGCACGTGGGGCA, -0.251 kJ/mol. As to AGCGTCACGTGAGTCG, the “relative binding free energy” value was found to be 1.13 kJ/mol. Under ATGTGCACGTGCGCGT stands -1.05 kJ/mol; under GGGGACACGTGATTAG, 0.544 kJ/mol. Under TATGGCACGTGATTGT stands 0.167 kJ/mol. On to GAGTGCACGTGCTGAT, for which the “relative binding free energy” value came out at 0.586 kJ/mol. As to GTTATCACGTGGTGGC, the “relative binding free energy” value is 0.753 kJ/mol.

Turning to CTTAACACGTGGGGGA, the “relative binding free energy” value is -0.209 kJ/mol. In the case of TGGAACACGTGCGGAT it was 0.293 kJ/mol; in that of TTGGTCACGTGGCACT, -0.251 kJ/mol; in that of AGAGGCACGTGTGGTA, -0.544 kJ/mol.

With GGCGGCACGTGGTGGG, the “relative binding free energy” value is -0.126 kJ/mol.

ATTAGCACGTGGGTTG: the “relative binding free energy” value was -0.669 kJ/mol. On to GTCGACACGTGAGGGC, for which the “relative binding free energy” value came to 1.3 kJ/mol.

For the sequence GGGGGCACGTGGACAA, the “relative binding free energy” value is -0.586 kJ/mol. In the case of GAGTTCACGTGTTTTG it was 1.63 kJ/mol; in that of TTGGCCACGTGTAGTG, -0.209 kJ/mol. In the case of GGTGACACGTGGTGCG, the “relative binding free energy” value was -0.251 kJ/mol.

For the sequence TATCGCACGTGAGGGA, the “relative binding free energy” value is 0.293 kJ/mol. Under ATTAACACGTGGAGTG stands 0.126 kJ/mol; under CTTGTCACGTGAACGG, 1.13 kJ/mol. Under TTTAGCACGTGGCGTG stands -0.46 kJ/mol; under GGGGGCACGTGCATTA, -0.962 kJ/mol; under GTAGGCACGTGACAGG, 0 kJ/mol.

Consider GAATGCACGTGGATTT, for which the “relative binding free energy” value came to 0.669 kJ/mol. In the case of GTTCACACGTGTTTGG it was 1 kJ/mol; in that of TTGTGCACGTGATAGT, 0.0418 kJ/mol. Under ATTCTCACGTGTTCTT stands 1.26 kJ/mol; under GTGGACACGTGTGGAG, 0.711 kJ/mol. With AACTACACGTGGGTTG, the “relative binding free energy” value stood at 0.0837 kJ/mol. Under TGGTACACGTGGCGGA stands 0 kJ/mol; under GTGTTCACGTGAGTGC, 1.38 kJ/mol; under TTTAGCACGTGGTAGC, -1.09 kJ/mol. Regarding TTTGGCACGTGGCAGA, the “relative binding free energy” value is -0.962 kJ/mol. Under GTGCGCACGTGTGGGT stands -0.293 kJ/mol; under AGGGTCACGTGGATTT, 0.377 kJ/mol. Under AGGTCCACGTGCGGTG stands -0.293 kJ/mol; under ATTTACACGTGCTTTA, -0.209 kJ/mol.

Regarding GGGAGCACGTGGTTGA, the “relative binding free energy” value is -0.628 kJ/mol. As for TTTTCCACGTGATTTG, the “relative binding free energy” value was 1.38 kJ/mol.

TCTCGCACGTGAGGGG: the “relative binding free energy” value was 0.711 kJ/mol. In the case of TATGTCACGTGACTGT it was 0.795 kJ/mol.

Consider TTGATCACGTGTTCGT, for which the “relative binding free energy” value came to 0.753 kJ/mol. Take TGGCGCACGTGGTGCT: the “relative binding free energy” value is -0.837 kJ/mol. In the case of CTCTGCACGTGGTTGG it was -0.0837 kJ/mol; in that of GGGTACACGTGTGAGT, 0.753 kJ/mol.

Turning to ATTGTCACGTGAGGTC, the “relative binding free energy” value is 0.669 kJ/mol.

GGTGCCACGTGTGTGG: the “relative binding free energy” value came out at 0.293 kJ/mol. In the case of GGGTGCACGTGTCGGA it was 0.418 kJ/mol; in that of GGGTTCACGTGACTTT, 1.26 kJ/mol. In the case of CATAGCACGTGGTGGT it was -0.628 kJ/mol; in that of CGCTGCACGTGAGGGG, 0.251 kJ/mol. Under GAACTCACGTGGGCGG stands 1.09 kJ/mol; under AAGTTCACGTGTCGTG, 0.418 kJ/mol; under TGGAGCACGTGGGGTC, -0.377 kJ/mol.

As to GGGTGCACGTGGGCAC, the “relative binding free energy” value is -0.628 kJ/mol. Under GGTTTCACGTGTCTGT stands 1.55 kJ/mol; under GGGCACACGTGCGGTG, -0.0418 kJ/mol. Regarding CTATGCACGTGGTGGA, the “relative binding free energy” value is -0.251 kJ/mol. Under TCGTTCACGTGTTTAT stands 1 kJ/mol.

As to CGTGACACGTGGCGTG, the “relative binding free energy” value was -0.46 kJ/mol.

Take TCTGTCACGTGGTCAG: the “relative binding free energy” value is -0.167 kJ/mol.

Consider TGGTTCACGTGGTAAC, for which the “relative binding free energy” value worked out at 0.837 kJ/mol. In the case of AGTACCACGTGTCGGG it was 0.0418 kJ/mol. Under ATGGTCACGTGAAGAG stands 1.46 kJ/mol; under TGAGTCACGTGAGGGC, 0.669 kJ/mol. Under TTGGGCACGTGCCCGT stands -0.795 kJ/mol; under GTAAGCACGTGGTGGG, -0.377 kJ/mol; under AATGTCACGTGAGGAT, 1.26 kJ/mol. For the sequence CGCGTCACGTGAGGGG, the “relative binding free energy” value came out at 0.502 kJ/mol. Take ATAAGCACGTGGAGTA: the “relative binding free energy” value was -0.669 kJ/mol. Regarding GTAGACACGTGGGTTC, the “relative binding free energy” value is -0.586 kJ/mol. In the case of TGAGGCACGTGGAAGG it was -0.209 kJ/mol.

Turning to TGGGTCACGTGGCGCG, the “relative binding free energy” value was 0.418 kJ/mol. For the sequence AGAGTCACGTGGATTG, the “relative binding free energy” value amounted to 0.502 kJ/mol. Under GGTTACACGTGTCTGC stands 1.17 kJ/mol; under AGTGTCACGTGAGACT, 1.55 kJ/mol; under TCGGGCACGTGTCAGT, 0.0418 kJ/mol.

With TATCTCACGTGGAGTA, the “relative binding free energy” value came out at 0.962 kJ/mol. In the case of TATCTCACGTGATGGT it was 1.3 kJ/mol; in that of GAGGGCACGTGTCGAG, -0.209 kJ/mol; in that of TAATTCACGTGTATTG, 0.753 kJ/mol. Under GGTTACACGTGTTGAG stands 1.09 kJ/mol.

For the sequence CAGTTCACGTGTGCGT, the “relative binding free energy” value worked out at 1 kJ/mol. With ACGGGCACGTGTGTTG, the “relative binding free energy” value is -0.586 kJ/mol. Under TATGTCACGTGTTATT stands 0.293 kJ/mol; under GGGGGCACGTGCGGTC, -0.628 kJ/mol; under GTTGTCACGTGATTTC, 1.92 kJ/mol. On to GCGTGCACGTGCGGTG, for which the “relative binding free energy” value is -0.126 kJ/mol. In the case of TAGGTCACGTGATATG it was 0.544 kJ/mol; in that of TGCTGCACGTGTCGTG, -0.0837 kJ/mol. For TGGGGCACGTGGCAAA, the “relative binding free energy” value was -0.962 kJ/mol. With TTGGTCACGTGTTTCC, the “relative binding free energy” value was 0.711 kJ/mol. In the case of ATGTGCACGTGTGTTG it was -0.126 kJ/mol; in that of TGGAGCACGTGCGGCT, -0.418 kJ/mol; in that of CGTGGCACGTGCGGGC, -0.46 kJ/mol. For the sequence TGCCTCACGTGGGATT, the “relative binding free energy” value came out at 0.962 kJ/mol.

In the case of TTTTTCACGTGATACT, the “relative binding free energy” value was found to be 0.879 kJ/mol. In the case of TGCTGCACGTGATGGT it was -0.0418 kJ/mol; in that of GTGCTCACGTGATTTA, 1.26 kJ/mol. In the case of GGTTGCACGTGCAGGC it was 0.669 kJ/mol. In the case of AGGGACACGTGAAGTG it was 0.586 kJ/mol.

For the sequence GCAGTCACGTGATTGT, the “relative binding free energy” value is 1.21 kJ/mol. In the case of ATGCACACGTGGGGTA it was -0.544 kJ/mol; in that of AAAGTCACGTGAAGAT, 1.3 kJ/mol.
